B1: hFc-(L15)-hFGF21(L98R, P171G, GG182-3) (Fc fusion)
chain: [letters of human IgG1 Fc left out]GGGGGSGGGSGGGGSHPIPDSSPLLQFGGQVRQRYLYTDDAQQTEAHLEIREDGTVGGAADQSPESLLQLKALKPGVIQILGVKTSRFLCQRPDGALYGSLHFDPEACSFRERLLEDGYNVYQSEAHGLPLHLPGNKSPHRDPAPRGPARFLPLPGLPPAPPEPPGILAPQPPDVGSSDPLSMVGGSQGRSPSYASGG
B2: Fc-(L15)-FGF21 (L98R, P171G) (Fc fusion)
chain: [letters of human IgG1 Fc left out]GGGGGSGGGSGGGGSHPIPDSSPLLQFGGQVRQRYLYTDDAQQTEAHLEIREDGTVGGAADQSPESLLQLKALKPGVIQILGVKTSRFLCQRPDGALYGSLHFDPEACSFRERLLEDGYNVYQSEAHGLPLHLPGNKSPHRDPAPRGPARFLPLPGLPPAPPEPPGILAPQPPDVGSSDPLSMVGGSQGRSPSYAS
B3: hFc-(L15)-hFGF21(L98R, P171G, Y179F) (Fc fusion)
chain: [letters of human IgG1 Fc left out]GGGGGSGGGSGGGGSHPIPDSSPLLQFGGQVRQRYLYTDDAQQTEAHLEIREDGTVGGAADQSPESLLQLKALKPGVIQILGVKTSRFLCQRPDGALYGSLHFDPEACSFRERLLEDGYNVYQSEAHGLPLHLPGNKSPHRDPAPRGPARFLPLPGLPPAPPEPPGILAPQPPDVGSSDPLSMVGGSQGRSPSFAS
B4: Fc-(L15)-FGF21 (L98R, P171G, A180E) (Fc fusion)
chain: [letters of human IgG1 Fc left out]GGGGGSGGGSGGGGSHPIPDSSPLLQFGGQVRQRYLYTDDAQQTEAHLEIREDGTVGGAADQSPESLLQLKALKPGVIQILGVKTSRFLCQRPDGALYGSLHFDPEACSFRERLLEDGYNVYQSEAHGLPLHLPGNKSPHRDPAPRGPARFLPLPGLPPAPPEPPGILAPQPPDVGSSDPLSMVGGSQGRSPSYES
B5: hFc-(L15)-hFGF21(L98R, P171G, A180G) (Fc fusion)
chain: [letters of human IgG1 Fc left out]GGGGGSGGGSGGGGSHPIPDSSPLLQFGGQVRQRYLYTDDAQQTEAHLEIREDGTVGGAADQSPESLLQLKALKPGVIQILGVKTSRFLCQRPDGALYGSLHFDPEACSFRERLLEDGYNVYQSEAHGLPLHLPGNKSPHRDPAPRGPARFLPLPGLPPAPPEPPGILAPQPPDVGSSDPLSMVGGSQGRSPSYGS
B6: hFc-(L15)-hFGF21(L98R, P171G, Y179S) (Fc fusion)
chain: [letters of human IgG1 Fc left out]GGGGGSGGGSGGGGSHPIPDSSPLLQFGGQVRQRYLYTDDAQQTEAHLEIREDGTVGGAADQSPESLLQLKALKPGVIQILGVKTSRFLCQRPDGALYGSLHFDPEACSFRERLLEDGYNVYQSEAHGLPLHLPGNKSPHRDPAPRGPARFLPLPGLPPAPPEPPGILAPQPPDVGSSDPLSMVGGSQGRSPSSAS
B7: hFc-(L15)-hFGF21(L98R, P171G, Y179A) (Fc fusion)
chain: [letters of human IgG1 Fc left out]GGGGGSGGGSGGGGSHPIPDSSPLLQFGGQVRQRYLYTDDAQQTEAHLEIREDGTVGGAADQSPESLLQLKALKPGVIQILGVKTSRFLCQRPDGALYGSLHFDPEACSFRERLLEDGYNVYQSEAHGLPLHLPGNKSPHRDPAPRGPARFLPLPGLPPAPPEPPGILAPQPPDVGSSDPLSMVGGSQGRSPSAAS
B8: hFc-(L15)-hFGF21(L98R, P171G, A180S) (Fc fusion)
chain: [letters of human IgG1 Fc left out]GGGGGSGGGSGGGGSHPIPDSSPLLQFGGQVRQRYLYTDDAQQTEAHLEIREDGTVGGAADQSPESLLQLKALKPGVIQILGVKTSRFLCQRPDGALYGSLHFDPEACSFRERLLEDGYNVYQSEAHGLPLHLPGNKSPHRDPAPRGPARFLPLPGLPPAPPEPPGILAPQPPDVGSSDPLSMVGGSQGRSPSYSS
B9: hFc-(L15)-hFGF21(L98R, P171G, P182) (Fc fusion)
chain: [letters of human IgG1 Fc left out]GGGGGSGGGSGGGGSHPIPDSSPLLQFGGQVRQRYLYTDDAQQTEAHLEIREDGTVGGAADQSPESLLQLKALKPGVIQILGVKTSRFLCQRPDGALYGSLHFDPEACSFRERLLEDGYNVYQSEAHGLPLHLPGNKSPHRDPAPRGPARFLPLPGLPPAPPEPPGILAPQPPDVGSSDPLSMVGGSQGRSPSYASP
B10: hFc-(L15)-hFGF21(L98R, P171G, G182) (Fc fusion)
chain: [letters of human IgG1 Fc left out]GGGGGSGGGSGGGGSHPIPDSSPLLQFGGQVRQRYLYTDDAQQTEAHLEIREDGTVGGAADQSPESLLQLKALKPGVIQILGVKTSRFLCQRPDGALYGSLHFDPEACSFRERLLEDGYNVYQSEAHGLPLHLPGNKSPHRDPAPRGPARFLPLPGLPPAPPEPPGILAPQPPDVGSSDPLSMVGGSQGRSPSYASG

Target: β-Klotho overexpressed in recombinant human 293T kidney cells
Assay: cell-based or functional assay

EC50 (nM), ELK luciferase assay [nM] | Efficacy, ELK luciferase assay [%] | Binder
1940 | 84.2 | B1
2.5 | 76.1 | B2
2.6 | 78.3 | B3
1.9 | 79.6 | B4
3.25 | 76.9 | B5
25.3 | 74.8 | B6
43.2 | 79.6 | B7
2.18 | 84.7 | B8
6.1 | 85.9 | B9
6.5 | 71.1 | B10

Reference: US20120052069A1 (Amgen, published 2012)
